Screen size: about 43,000 compounds; about 200 (0.47%) were called active. Inconclusive results (about 12%) are left out. Calls come from the whole dose curve; as a rule, active = well fitted cell-killing curve with a large enough effect; inconclusive = small, poorly fitted or top-dose-only effect, or effect the other way; inactive = flat fitted curve, though single readings scatter. Some of the results follow.
Experiment: Cell viability qHTS assay in S16 Pmp22-F2sN cells; note: nearly all actives have a fitted effect of over 65% in size
Details: S16 Pmp22-F2sN Schwann cells viability, CellTiter-Glo, 24 h; series mostly up to 57.5 µM; activity change, negative = cytotoxicity: at the top concentration
Summary of the method: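 S16 Pmp22-F2sN Schwann cells (500-1,000/well) in phenol-red-free DMEM with 10% FBS received 23 nL compound by pin tool for 24 h at 37 °C. Viability was then read as CellTiter-Glo luminescence after 15 min at room temperature.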
% is set by controls: 0 for no effect and ±100 for the full control effect.

SMILES	activity change, negative = cytotoxicity
Cc1ccc(-n2c(=O)c3sc4ccccc4c3n(C)c2=O)cc1F	inactive: 0.649%
COc1cccc(NC(=O)c2oc3ccccc3c2NC(=O)c2ccc(F)c(F)c2)c1	inactive: -1.86%
O=C(CSc1nc2nccnc2c(=O)n1CCc1c[nH]c2ccccc12)Nc1ccccc1	inactive: 9.37%
O=C(NC1CC(=O)N(c2ccccc2)C1)C(c1ccccc1)c1ccccc1 (stereo unspecified)	inactive: -0.96%
COC(=O)c1c(NC(=O)/C(C#N)=C/c2ccc(OC)cc2)sc2c1CCC2	inactive: 0.728%
CCc1ccc(C(=O)c2cn(CC(=O)Nc3cc(OC)ccc3OC)c3nc(C)ccc3c2=O)cc1	inactive: -17.2%
Cc1ccc(C(=O)N2CCCCC2)cc1NC(=O)c1nsc2ccccc12	inactive: 3.22%
Cc1c(CCNC(=O)c2ccc(Br)o2)sc2nc(-c3ccc(Cl)cc3)nn12	inactive: -23.1%
COc1ccc(S(=O)(=O)N2CCC(N3CCN(Cc4ccc(F)cc4)C(=O)C3=O)CC2)cc1	inactive: -0.213%
COc1ccc(C(CNC(=O)c2ccc(F)cc2)N2CCCC2)cc1 (stereo unspecified)	inactive: 5.2%
Cn1c(=O)c2c(nc(SCC(=O)Nc3ccc(F)cc3)n2Cc2ccccc2F)n(C)c1=O	inactive: 3.48%
CCCSc1ncc(Cl)c(C(=O)Nc2c(C(=O)c3ccc(C)cc3)oc3ccccc23)n1	inactive: 0.485%
CCC(=O)N1c2ccc(S(=O)(=O)CCC(=O)N3CCN(c4cc(C)ccc4C)CC3)cc2CC1C (stereo unspecified)	inactive: -11.7%
CCOc1ccc2nc(NC(=O)c3nc(SCc4ccccc4C)ncc3Cl)sc2c1	inactive: 2.18%
CC(C)CN1CCc2nc(Nc3ccc(F)cc3F)ncc2C1	inactive: -1.03%
O=C(Cc1cccs1)Nc1c(C(=O)Nc2ccc(F)cc2)oc2ccccc12	inactive: 3.93%
COc1cc(/C=C(\C#N)c2nc3ccccc3[nH]2)ccc1OCc1ccccc1F	inactive: 4.65%
COc1ccc(-n2c(SCC(N)=O)nc3c(oc4ccccc43)c2=O)cc1	inactive: 16.8%
Cc1ccc(-c2onc(C)c2C)cc1S(=O)(=O)N1CCOc2ccc(Cl)cc21	inactive: -1.96%
CC(C)(C)OC(=O)N1CCc2nc(N3CCN(c4ncccn4)CC3)ncc2C1	inactive: 0.142%
COc1ccc(CCC(=O)NCc2ccc3c(c2)CCN3C(=O)c2ccccc2)cc1	inactive: 3.87%
COc1c(Cl)cc(C(=O)N(Cc2ccccc2F)C2CCS(=O)(=O)C2)cc1Cl (stereo unspecified)	inactive: 0.164%
CCC(Sc1nc(-c2ccc(F)cc2)nc2c1Cc1c(CO)cnc(C)c1O2)C(=O)Nc1ccc(F)cc1 (stereo unspecified)	inactive: 2.79%
CCOc1ccc(CCNC(=O)c2cc3c(=O)n(CC)c4ccccc4c3s2)cc1OCC	inactive: 11.5%

SMILES	activity change, negative = cytotoxicity
CCc1cccc(NC(=O)CSc2nncn3c2cc2sccc23)c1	inactive: -0.262%
COc1ccc(N2CCN(c3ccc(-c4nc(-c5ccccc5)no4)cc3[N+](=O)[O-])CC2)cc1	inactive: 9.02%
COc1cc2[nH]c(=O)n(Cc3ccc(C(=O)N4CCN(c5ccc(Cl)cc5)CC4)cc3)c(=O)c2cc1OC	inactive: -9.25%
O=C(Nc1cccc(Cl)c1Cl)c1ccc2c(c1)N(Cc1cccc(Cl)c1)C(=O)c1ccccc1S2=O (stereo unspecified)	inactive: 2.24%
Cc1ccc(N(Cc2cccs2)C(=O)C(C)Oc2ccc(Cl)c(C)c2)cc1 (stereo unspecified)	inactive: -20%
Cc1ccc(C)c(NC(=O)Cn2nc(C)c3nn(-c4ccc(Cl)cc4)c(C)c3c2=O)c1	inactive: -1.66%
COc1ccc(CNC(=O)CCS(=O)(=O)c2cc(Br)cc3c2N(C(C)=O)C(C)C3)cc1 (stereo unspecified)	inactive: 9.81%
Cn1cnc(S(=O)(=O)N2CCCC(C(=O)NCc3ccc(Cl)cc3)C2)c1 (stereo unspecified)	inactive: 8.57%
CCN(CC)S(=O)(=O)c1ccc2c(c1)N(CC(=O)N1CCN(c3ccc(OC)cc3)CC1)C(=O)CO2	inactive: 11.1%
Cc1ccccc1Nc1c(-c2cccc(Cl)c2)nc2ncccn12	inactive: 4.67%
COc1ccc(S(=O)(=O)NCCSc2nnnn2-c2ccccc2)cc1OC	inactive: -22.7%
CCN(Cc1ccccc1)C(=O)c1cc(-c2ccccc2)n[nH]1	inactive: -6.75%
Cc1ccc(Cl)cc1N1CCN(C(=O)CN2C(=O)COc3ccc(S(=O)(=O)N4CCCCCC4)cc32)CC1	inactive: -4.42%
CC(C)CCNC(=O)c1ccc2c(c1)NC(=O)C(C(C)C)N2 (stereo unspecified)	inactive: 13.4%
COc1cccc(C2C(C(=O)Nc3ccc(Cl)cc3)=C(C)Nc3nc4ccccc4n32)c1OC (stereo unspecified)	inactive: -2.7%
CC(=O)N1CCCc2cc(S(=O)(=O)N3CCN(c4ccccc4F)CC3)ccc21	inactive: -7.75%
CCCCNC(=O)c1c(-c2ccccc2)c(-c2ccccc2)nn(C)c1=O	inactive: 1.3%
Cc1oc2ncn(CC(C)C)c(=O)c2c1C(=O)N(CCN(C)C)Cc1ccccc1	inactive: 5.63%
Cc1ccc2c(c1)N(C(=O)N1CCC(C(=O)NCc3ccccc3C)CC1)CC(C)O2 (stereo unspecified)	inactive: -5.51%
CCCCNC(=O)c1ccc2c(c1)N(CC)C(=O)c1ccccc1S2	inactive: -1.71%
CCNC(=O)c1c(NC(=O)Cc2coc3ccc(CC)cc23)sc2c1CCCC2	inactive: 8.26%
CCCCNC(=O)CN1C(=O)c2cccnc2Sc2ccccc21	inactive: 9.28%
CC1=C(C(=O)Nc2cccnc2)C(c2cccc(F)c2)n2nc(SCc3ccccc3F)nc2N1 (stereo unspecified)	inactive: 14.7%
COc1ccc(C)cc1NC(=O)c1cc(S(=O)(=O)N2CCOCC2)cn1C	inactive: 10.3%

SMILES	activity change, negative = cytotoxicity
O=C(CSc1nc(=O)[nH]c2c1CCCC2)NCc1ccccc1Cl	inactive: 2.29%
CC(=O)N1c2ccc(S(=O)(=O)NCc3ccccc3Cl)cc2CC1C (stereo unspecified)	inactive: -9.05%
CCOC(=O)c1c(C)n(-c2ccccc2)c2ccc(OC(=O)COc3ccccc3)cc12	inactive: -1.09%
COc1ccc(N2CCN(C(=O)C3CCCN(C(=O)c4cc5sccc5n4C)C3)CC2)cc1 (stereo unspecified)	inactive: 9.05%
O=C(COc1ccc2ccccc2c1)NC1CC(=O)N(c2ccc(F)cc2)C1 (stereo unspecified)	inactive: 1.58%
Cc1ccccc1CN1c2ccccc2-c2nc(SCC(=O)c3ccccc3)ncc2S1(=O)=O	inactive: -2.24%
CCOc1ccccc1NC1(c2ccccc2)C(=O)c2ccccc2C1=O	inactive: -1.12%
CC1(C)N=C(SCc2ccc(F)cc2)c2ccccc2N1	inactive: -16.6%
CCNC(=O)c1ccc2c(c1)nc1n2CCCCC1	inactive: 4.03%
Cc1c(CNC2CCCCC2)c(C(=O)O)c(C)n1Cc1ccccc1F	inactive: -1.92%
Cc1ccccc1OCc1nc2c3cnn(-c4cccc(F)c4)c3ncn2n1	inactive: 19.4%
COc1cccc(N2CCN(C(=O)C3CCCN(S(=O)(=O)c4cccc5nsnc45)C3)CC2)c1 (stereo unspecified)	inactive: -10.4%
Cc1ccc(CNC(=O)CCc2c(C)nn(-c3ccc(N4CCOCC4)nn3)c2C)cc1	inactive: 16.3%
CCOc1ccc(C(=O)c2cn(CC(=O)Nc3ccc4c(c3)OCO4)c3ccc(OC)cc3c2=O)cc1	inactive: -3.28%
O=C(CCn1c(=O)c2cccn2c2cccnc21)NCc1ccccc1Cl	inactive: 6.53%
CCOc1ccc(C(=O)Nc2cc(-c3nc4cc(OC)ccc4o3)ccc2C)cc1[N+](=O)[O-]	inactive: 2.87%
Cc1ccc(Cl)cc1NC(=O)CSc1nc2ccccc2c2nc(-c3ccccc3)nn12	inactive: 0.0925%
CCOC(=O)C1CCN(C(=O)c2nn(-c3ccc(OC)c(Cl)c3)c(=O)c3c2c2ccccc2n3C)CC1	inactive: -17.1%
Cc1ccc(S(=O)(=O)c2cn(CC(=O)Nc3cccc(Cl)c3)c3ccccc3c2=O)cc1	inactive: 2.76%
CCn1c(=O)n(-c2ccc3c(c2)OCO3)c2nc(-c3ccc(C(C)C)cc3)nc(C(N)=O)c21	inactive: 14.7%
CCOc1ccc2c(c1)c(=O)c(C(=O)c1ccc(CC)cc1)cn2CC(=O)Nc1ccccc1OC	inactive: 16%
COc1ccc(OC)c(NC(=O)Cn2c(=O)c3cccn3c3ccccc32)c1	inactive: -2.35%
CCN(C(=O)CSc1nnc(-c2cc(OC)c(OC)c(OC)c2)o1)c1ccccc1	inactive: 4.1%
O=C(Cn1c(-c2cccs2)cc2ccccc21)N1CCN(c2ccccc2F)CC1	inactive: 1.76%

SMILES	activity change, negative = cytotoxicity
COc1ccc(NC(=O)CSC2=Nc3ccccc3C3=NC(CC(=O)NCc4ccco4)C(=O)N23)cc1 (stereo unspecified)	inactive: -0.39%
Cc1ccc(C(=O)N(Cc2ccco2)Cc2ccco2)cc1	inactive: 9.31%
CCOc1cc(CNC(=O)c2ccccc2NC(=O)c2nsc3ccccc23)ccc1OC	inactive: -5.21%
CCOc1ccc(NC(=O)Cn2cc(C(=O)c3cccs3)c3ccccc32)cc1	inactive: 14.1%
CCOc1cccc(CC(=O)NCc2ccc3c(c2)CCN3C(=O)c2ccc(F)cc2)c1OCC	inactive: -2.08%
COc1ccc(CN(C)c2ccc(-c3nc(-c4ccccc4)no3)cc2[N+](=O)[O-])cc1	inactive: 11.9%
COc1cccc(CCNC(=O)c2cnc3sc(N4CCCCCC4)nn3c2=O)c1	inactive: 1.99%
O=C(Nc1ccc2oc(-c3cccnc3)nc2c1)c1ccc(-c2cccc(Cl)c2)o1	inactive: 11.8%
Cc1ccc(-n2nc3c(=O)n(CC(=O)NC(C)C)nc(C)c3c2C)cc1	inactive: 1.19%
Cc1cccc(Nc2ncc(NC(=O)c3cccc(F)c3)c(Nc3cccc(C)c3)n2)c1	inactive: 3.48%
CCC(CC)C(=O)Nc1ccc2nc(SCc3ccccc3)sc2c1	inactive: 18%
COc1ccc2c(CC(=O)Nc3ccc(C)cc3)coc2c1	inactive: 3.26%
COc1cccc(N(Cc2nnc3n2CCCCC3)C(=O)Nc2ccccc2)c1	inactive: -0.0948%
Cc1nc2nc(NC(=O)c3ccc(C(C)(C)C)cc3)[nH]n2c(=O)c1Cl	inactive: 5.25%
Cc1ccc(-c2nnc(SCC(=O)c3ccc(Cl)cc3)n2-c2ccccc2)cc1	inactive: 1.34%
CCOc1ccccc1NC(=O)C1CCN(S(=O)(=O)c2cc(Br)cc3c2N(C(C)=O)CC3)CC1	inactive: 2.84%
COc1cccc(CN2CCCN(CC(=O)Nc3ccc4c(c3)OCCO4)S2(=O)=O)c1	inactive: 15.2%
O=C(Nc1cccc(O)c1)c1cc2nc(-c3ccc(Br)cc3)cc(C(F)(F)F)n2n1	inactive: 5.21%
COc1ccc(N2CCN(C(=O)CSc3c4c(nc5ccc(Cl)cc35)CCCC4)CC2)cc1	inactive: -24.6%
CCOc1ccc(CNC(=O)c2ccc3c(c2)N(CC)CCS3)cc1	inactive: 6.87%
CCCCOc1ccc(C(=O)NCCc2sc(-c3ccc(OC)c(OC)c3)nc2C)cc1	inactive: -2.49%
Cc1ccc(NC(=O)C2CCN(S(=O)(=O)c3ccc4[nH]c(=O)ccc4c3)CC2)cc1C	inactive: 15.7%
Cc1ccccc1CNc1nc(N(C)C)nc2c1cnn2C	inactive: -3%
Cn1c(=NC(=O)c2ccc(S(=O)(=O)N3CCCC3)cc2)sc2cc(F)ccc21	inactive: -17.9%

— PubChem BioAssay AID1508642 (National Center for Advancing Translational Sciences (NCATS), 2021)
